Data published in paper PMC5892938.
This is one part of the list. At the low end of the ranking, values are background and their order means little.

Each sequence was assayed against GST-SBP-SLBP (stem-loop binding protein) (UniProt Q14493) (assay: targeted RNA Bind-n-Seq). Conditions: RBNS binding buffer: 25 mM Tris pH 7.5, 150 mM KCl, 3 mM MgCl2, 0.1% Tween, 0.5 mg/mL BSA, 1 mM DTT; 27 nM protein, 750 pM RNA pool; temperature not stated; high values mean tight binding.
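Further: DESeq read counts versus GST-SBP nonspecific binding control pulldown.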

| Sequence | binding signal (log2 fold change) |
| --- | --- |
| GGUCACGUCUCAAUCAACUCUUCGUCAGGAGUUUUCUCCUGUUAAUUCAACAGCUCGCAGUCAAG | -0.2 |
| GGUCACGUCUCAAUCAACUCAUCUCCAGGAGUUUACUCCUGCAUUUUCAACAGCUCGCAGUCAAG | 0.0927 |
| GGUCACGUCUCAAUCAACUCAGUCUCAGGAGUUUUCUCCUGUUUUCUCAACAGCUCGCAGUCAAG | -0.0861 |
| GGUCACGUCUCAAUCAACUCUACUCCAGGAGUUUUCUCCUGCUUUUUCAACAGCUCGCAGUCAAG | 0.0453 |
| GGUCACGUCUCAAUCAACUCCUAAGAGGGGGGGAAAACCCCUUUACCCUCGUAAUCAACAGCUCGCAGUCAAG | 0.211 |
| GGUCACGUCUCAAUCAACUCAUCUUCAGGAGUUUACUCCUGUAAUCUCAACAGCUCGCAGUCAAG | -0.0769 |
| GGUCACGUCUCAAUCAACUCAUUCUCAGGAGUUUUCUCCUGUAUACUCAACAGCUCGCAGUCAAG | 0.0687 |
| GGUCACGUCUCAAUCAACUCAAUCCCCAGGGAAAACCCUGGCAAACUCAACAGCUCGCAGUCAAG | -0.0154 |
| GGUCACGUCUCAAUCAACUCAACUCCCAGGGAAAGCCCUGGCUUUUUCAACAGCUCGCAGUCAAG | 0.0567 |
| GGUCACGUCUCAAUCAACUCUUUUCCCAGGGAAAACCCUGGCAUUUUCAACAGCUCGCAGUCAAG | 0.0827 |
| GGUCACGUCUCAAUCAACUCUUCUUCCAGGGAAAGCCCUGGCGUAUUCAACAGCUCGCAGUCAAG | 0.0168 |
| GGUCACGUCUCAAUCAACUCUACUCCAGGAGUUUACUCCUGUAUAUUCAACAGCUCGCAGUCAAG | 0.125 |
| GGUCACGUCUCAAUCAACUCUUCCCCCAGGGAAACCCCUGGUUAUCUCAACAGCUCGCAGUCAAG | -0.0551 |
| GGUCACGUCUCAAUCAACUCACUAGAGGGGGGGAAAACCCCUUUACCCUCGAUAUCAACAGCUCGCAGUCAAG | -0.102 |
| GGUCACGUCUCAAUCAACUCAAUCCCAGGAGUUUUCUCCUGUAUACUCAACAGCUCGCAGUCAAG | 0.0384 |
| GGUCACGUCUCAAUCAACUCAAUCCCCAGGGAAAGCCCUGGCUAUUUCAACAGCUCGCAGUCAAG | 0.226 |
| GGUCACGUCUCAAUCAACUCAUCCUCAGGAGUUUCCUCCUGUUAUCUCAACAGCUCGCAGUCAAG | 0.203 |
| GGUCACGUCUCAAUCAACUCUUUCGCAGGAGUUUCCUCCUGGUAAUUCAACAGCUCGCAGUCAAG | -0.0991 |
| GGUCACGUCUCAAUCAACUCAAUAGAGGGGGGGAAAACCCCUUUACCCUCAAUAUCAACAGCUCGCAGUCAAG | 0.177 |
| GGUCACGUCUCAAUCAACUCAACUCCCAGGGAAAUCCCUGGUUUUUUCAACAGCUCGCAGUCAAG | -0.0561 |
| GGUCACGUCUCAAUCAACUCAUCCCCCAGGGAAAACCCUGGCUUUCUCAACAGCUCGCAGUCAAG | -0.203 |
| GGUCACGUCUCAAUCAACUCAACUCCCAGGGAAAGCCCUGGCAAUCUCAACAGCUCGCAGUCAAG | -0.111 |
| GGUCACGUCUCAAUCAACUCAUACGAGGGGGGGAAAACCCCUUUACCCUCUCAUUCAACAGCUCGCAGUCAAG | 0.144 |
| GGUCACGUCUCAAUCAACUCAACAGAGGGGGGGAAAACCCCUUUACCCUCAGAAUCAACAGCUCGCAGUCAAG | -0.409 |

| Sequence | binding signal (log2 fold change) |
| --- | --- |
| GGUCACGUCUCAAUCAACUCUAUCCCAGGAGUUUACUCCUGUUAUUUCAACAGCUCGCAGUCAAG | -0.119 |
| GGUCACGUCUCAAUCAACUCAUUCUCAGGAGUUUACUCCUGUAAUUUCAACAGCUCGCAGUCAAG | 0.0981 |
| GGUCACGUCUCAAUCAACUCUUUUCCAGGAGUUUACUCCUGCAAUUUCAACAGCUCGCAGUCAAG | 0.288 |
| GGUCACGUCUCAAUCAACUCAUUCCCAGGAGUUUCCUCCUGUAUAUUCAACAGCUCGCAGUCAAG | 0.205 |
| GGUCACGUCUCAAUCAACUCUUCCCCCAGGGAAACCCCUGGCUUAUUCAACAGCUCGCAGUCAAG | -0.121 |
| GGUCACGUCUCAAUCAACUCCUCAGAGGGGGGGAAAACCCCUUUACCCUCCUAUUCAACAGCUCGCAGUCAAG | 0.227 |
| GGUCACGUCUCAAUCAACUCUAUUCCCAGGGAAAUCCCUGGCAUACUCAACAGCUCGCAGUCAAG | -0.13 |
| GGUCACGUCUCAAUCAACUCUACUCCCAGGGAAAGCCCUGGCUAUUUCAACAGCUCGCAGUCAAG | -0.0216 |
| GGUCACGUCUCAAUCAACUCUCCGGAGGGGGGGAAAACCCCUUUACCCUCAACAUCAACAGCUCGCAGUCAAG | -0.223 |
| GGUCACGUCUCAAUCAACUCCUCCGAGGGGGGGAAAACCCCUUUACCCUCAUAAUCAACAGCUCGCAGUCAAG | -0.105 |
| GGUCACGUCUCAAUCAACUCUCCAGAGGGGGGGAAAACCCCUUUGCCCUCAAUUUCAACAGCUCGCAGUCAAG | -0.117 |
| GGUCACGUCUCAAUCAACUCAACGCCAGGAGUUUCCUCCUGUUUAUUCAACAGCUCGCAGUCAAG | -0.0523 |
| GGUCACGUCUCAAUCAACUCUACUUCCAGGGAAAACCCUGGUAAACUCAACAGCUCGCAGUCAAG | 0.0385 |
| GGUCACGUCUCAAUCAACUCAACAGAGGGGGGGAAAACCCCUUUACCCUCCAGAUCAACAGCUCGCAGUCAAG | -0.176 |
| GGUCACGUCUCAAUCAACUCAUUUUCAGGAGUUUACUCCUGUUAUCUCAACAGCUCGCAGUCAAG | -0.134 |
| GGUCACGUCUCAAUCAACUCCAUAGAGGGGGGGAAAACCCCUUUACCCUCACAAUCAACAGCUCGCAGUCAAG | -0.00136 |
| GGUCACGUCUCAAUCAACUCUACUUCCAGGGAAAGCCCUGGUAAAUUCAACAGCUCGCAGUCAAG | 0.096 |
| GGUCACGUCUCAAUCAACUCAAUCCCAGGAGUUUACUCCUGUUAUUUCAACAGCUCGCAGUCAAG | 0.0596 |
| GGUCACGUCUCAAUCAACUCUAUUUCAGGAGUUUCCUCCUGUAUAUUCAACAGCUCGCAGUCAAG | -0.0806 |
| GGUCACGUCUCAAUCAACUCAUUUUCCAGGGAAAUCCCUGGUAAUUUCAACAGCUCGCAGUCAAG | -0.0538 |
| GGUCACGUCUCAAUCAACUCUUCCCCAGGAGUUUUCUCCUGUUUUUUCAACAGCUCGCAGUCAAG | -0.051 |
| GGUCACGUCUCAAUCAACUCUUCUUCAGGAGUUUUCUCCUGUAUUUUCAACAGCUCGCAGUCAAG | 0.0134 |
| GGUCACGUCUCAAUCAACUCUACUUCAGGAGUUUCCUCCUGCUUAUUCAACAGCUCGCAGUCAAG | -0.00559 |
